No constants are given. Whether binding was seen depends on the method and setting. For some of these results: Binding seen in cells or lysates may run through a third protein. Some results given as binding are weak or reduced against the parent protein; the word gives no strength. For some of these results: Tags and fused reporters may be left off the sequences shown.
T1: Vps3 (S. cerevisiae) (UniProt P23643)
T1 sequence (chain, BODIPY-labelled lysines (BODIPY-Lys-tRNA in the translation)): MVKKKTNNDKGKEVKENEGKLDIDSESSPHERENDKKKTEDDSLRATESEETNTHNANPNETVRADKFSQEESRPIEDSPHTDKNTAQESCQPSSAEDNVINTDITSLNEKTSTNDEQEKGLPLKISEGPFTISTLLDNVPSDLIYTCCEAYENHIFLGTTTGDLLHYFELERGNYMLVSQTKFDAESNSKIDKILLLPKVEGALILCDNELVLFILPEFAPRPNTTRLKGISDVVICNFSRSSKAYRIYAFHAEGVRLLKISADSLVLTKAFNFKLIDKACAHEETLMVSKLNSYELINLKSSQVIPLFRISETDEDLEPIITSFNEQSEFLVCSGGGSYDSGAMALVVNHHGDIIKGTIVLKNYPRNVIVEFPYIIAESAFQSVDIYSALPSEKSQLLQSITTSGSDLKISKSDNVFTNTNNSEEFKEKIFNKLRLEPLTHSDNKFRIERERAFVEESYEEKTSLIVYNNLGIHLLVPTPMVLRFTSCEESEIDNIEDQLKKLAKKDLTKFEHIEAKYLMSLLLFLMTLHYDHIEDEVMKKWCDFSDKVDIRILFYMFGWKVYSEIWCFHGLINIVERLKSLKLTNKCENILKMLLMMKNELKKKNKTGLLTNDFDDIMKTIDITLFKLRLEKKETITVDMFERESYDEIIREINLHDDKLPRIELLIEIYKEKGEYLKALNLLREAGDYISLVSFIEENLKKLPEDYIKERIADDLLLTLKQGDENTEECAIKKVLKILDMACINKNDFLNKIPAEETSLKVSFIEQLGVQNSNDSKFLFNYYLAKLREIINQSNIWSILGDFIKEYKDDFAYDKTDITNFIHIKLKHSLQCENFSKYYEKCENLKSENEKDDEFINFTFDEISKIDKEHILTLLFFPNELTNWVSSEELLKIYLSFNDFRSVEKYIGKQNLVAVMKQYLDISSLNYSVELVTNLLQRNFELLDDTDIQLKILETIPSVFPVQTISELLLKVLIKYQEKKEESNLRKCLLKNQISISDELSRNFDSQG

Protein sequences, listed by entry. Tags and fused reporters are not part of them. Residues count along the entry.
UniProt P27801: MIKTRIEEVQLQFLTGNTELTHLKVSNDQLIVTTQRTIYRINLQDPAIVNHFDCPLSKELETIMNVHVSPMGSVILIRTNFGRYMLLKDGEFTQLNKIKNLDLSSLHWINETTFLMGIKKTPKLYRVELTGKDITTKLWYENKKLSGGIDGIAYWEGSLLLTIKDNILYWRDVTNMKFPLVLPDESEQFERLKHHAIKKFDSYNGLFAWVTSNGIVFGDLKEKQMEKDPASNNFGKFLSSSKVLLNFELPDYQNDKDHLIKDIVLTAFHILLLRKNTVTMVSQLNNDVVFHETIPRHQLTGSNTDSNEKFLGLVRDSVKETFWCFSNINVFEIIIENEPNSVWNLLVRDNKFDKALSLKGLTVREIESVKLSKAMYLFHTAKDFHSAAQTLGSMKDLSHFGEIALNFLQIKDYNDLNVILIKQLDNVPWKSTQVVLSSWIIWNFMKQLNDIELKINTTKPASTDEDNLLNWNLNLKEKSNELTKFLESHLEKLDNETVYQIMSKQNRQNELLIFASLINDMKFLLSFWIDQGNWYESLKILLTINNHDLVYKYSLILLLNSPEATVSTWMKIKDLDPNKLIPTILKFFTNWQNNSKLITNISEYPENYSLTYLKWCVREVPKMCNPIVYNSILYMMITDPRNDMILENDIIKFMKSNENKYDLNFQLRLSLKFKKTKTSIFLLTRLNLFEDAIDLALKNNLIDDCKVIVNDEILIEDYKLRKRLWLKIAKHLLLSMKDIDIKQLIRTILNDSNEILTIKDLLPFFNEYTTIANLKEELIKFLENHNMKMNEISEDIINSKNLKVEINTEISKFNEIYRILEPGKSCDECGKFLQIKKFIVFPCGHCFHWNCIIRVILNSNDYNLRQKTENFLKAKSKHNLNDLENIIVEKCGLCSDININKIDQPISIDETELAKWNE
UniProt P12868, residues 737-1029: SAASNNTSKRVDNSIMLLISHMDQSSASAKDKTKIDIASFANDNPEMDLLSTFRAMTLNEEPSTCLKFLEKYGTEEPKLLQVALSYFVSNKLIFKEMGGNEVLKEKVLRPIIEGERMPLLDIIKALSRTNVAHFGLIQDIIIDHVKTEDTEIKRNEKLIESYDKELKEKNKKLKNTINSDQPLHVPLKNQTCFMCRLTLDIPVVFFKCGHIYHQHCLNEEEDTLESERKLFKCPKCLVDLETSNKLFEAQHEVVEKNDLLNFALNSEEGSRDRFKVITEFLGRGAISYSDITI

T2: 6His-GFP-Vps41 (S. cerevisiae), P38959
T2 chain: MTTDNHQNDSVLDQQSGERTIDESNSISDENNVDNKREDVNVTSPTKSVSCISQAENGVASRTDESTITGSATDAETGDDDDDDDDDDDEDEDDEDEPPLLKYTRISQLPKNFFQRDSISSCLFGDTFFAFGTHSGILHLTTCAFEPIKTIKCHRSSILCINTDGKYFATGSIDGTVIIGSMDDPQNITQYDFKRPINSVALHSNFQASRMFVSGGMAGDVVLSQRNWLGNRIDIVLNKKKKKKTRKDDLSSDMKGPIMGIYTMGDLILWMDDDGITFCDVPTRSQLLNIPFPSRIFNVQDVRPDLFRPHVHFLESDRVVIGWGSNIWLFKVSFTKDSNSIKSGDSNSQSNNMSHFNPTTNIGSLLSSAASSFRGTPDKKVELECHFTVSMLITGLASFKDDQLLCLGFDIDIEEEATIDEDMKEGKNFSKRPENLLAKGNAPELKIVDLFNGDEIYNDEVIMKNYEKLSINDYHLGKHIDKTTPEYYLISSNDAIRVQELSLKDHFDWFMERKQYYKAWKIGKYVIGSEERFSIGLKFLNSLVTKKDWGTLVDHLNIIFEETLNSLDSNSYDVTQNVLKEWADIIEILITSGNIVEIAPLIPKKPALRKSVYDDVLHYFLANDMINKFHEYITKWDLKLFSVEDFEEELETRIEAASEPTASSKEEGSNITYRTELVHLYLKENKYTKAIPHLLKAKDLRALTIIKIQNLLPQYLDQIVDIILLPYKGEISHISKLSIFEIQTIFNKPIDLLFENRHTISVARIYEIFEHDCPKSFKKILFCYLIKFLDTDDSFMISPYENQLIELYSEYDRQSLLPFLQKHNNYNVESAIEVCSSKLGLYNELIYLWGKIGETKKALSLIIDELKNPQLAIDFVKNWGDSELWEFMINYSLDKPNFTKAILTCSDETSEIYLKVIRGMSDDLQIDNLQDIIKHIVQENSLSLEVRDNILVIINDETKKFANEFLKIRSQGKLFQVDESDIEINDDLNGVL

B1: Vps39, Q07468 1-1049 (protein)
chain: MLRAQKLHSLKSSDITAILPTEQSQKLVLAKKNGDVEVYSRDGNTLKLFQVYPDLLQNAKNDPLPPVIENFYFANELSTIFAQCKETLILLSTTNLHEYDRIIDRRGINHCWLFERSHKNKEEKNTYLIYSTINTAKMRVLIWEGRTYKNMMEASLSYRKETIRSIYPGETGITLATDLGIYHWPYNKPSLIRIEKTVKNKFPKDMISALTELKEQAEKVIEKKPKKNSHFDAQSFSSMDRMSRKSSMSSLWYRTIRNERGNKIRYTFELDGNDATPMIIDGATKKIFKVELMHNNEEPFLIATDHATFSESNSEFDHMQYLSSNLLMLYNSSTIKFVDYENGFTFLQQKIPEGIKWVKNLSGTYFLVWTSNDEVQLFSYHVDDGSEDDDQESICGDINDPDFYQLWRKVLFYKFFIDSPHSKELCVSDNPEESLDICAMKLRDLTVMWCLRIFDKFQNYMVQLERSRNSRMIRSKCEEMIIKSIFDLFIKFWAPPQLVILKVFPSAISSLVLEITGQEHHCLLKEAEEVKETYDIPPHLLNRWCLPYLTDTRRHLQNLLSKENDDESRITWCYRDREIKQSFDFFLISNHDDVDLNTMLTLIDTVLFKCYLYYNPPMVGPFIRVENHCDSHVIVTELKIRHMFKDLIDFYYKRGNHEEALKFLTDLVDELENDNTDQKQRQKIDHGVKILVIYYLKKLSNPQLDVIFTYTDWLLNRHNDSIKEILSSIFFYDSQACSSRDHLKVYGYIKKFDKLLAIQYLEFAISTFRLEGNKLHTVLIKLYLENLDIPSTRIKLKSLLETTSVYEPRTILKLLNDAIESGSDQLPTNQLNFVKYLKIFPLSKLENHKEAVHILLDEIDDYKAATSYCNDVYQSDSTKGEELLLYLYSKLVSIYDSNRNSKLILNFLQDHGSKLNSAEIYKNLPQDISLYDIGRVVSQLLKKHTSKMDETRLEKALLQVELVATTYKLNERMSSYGVLSDSHKCPICKKVISNFGTDSISWFTREGRNIITHYNCGKVLQERFNAKNEKSSRIKQKTLGEVINELNNK
modifications: here or on the partner: BODIPY-labelled lysines (BODIPY-Lys-tRNA in the translation)

Columns and labels:
[1] = target: T1, Vps3 (S. cerevisiae); assay: pull-down; fragments of subunits from linear PCR templates co-translated in LTE with single EGFP-tagged bait subunits; precipitated on the anti-GFP matrix; SDS-PAGE, fluorescence scan
[2] = target: Vps39 (S. cerevisiae) (UniProt Q07468); assay: as above
[3] = target: Vps18 (S. cerevisiae) (UniProt P27801); assay: as above
[4] = target: T2, 6His-GFP-Vps41 (S. cerevisiae), P38959; assay: SEC; six HOPS subunits co-translated in 30 ml LTE; Ni-NTA HiTrap (eluted with 250 mM imidazole), then Superdex G200 10/300GL in 50 mM Tris-HCl pH 8, 200 mM NaCl, 1 mM TCEP; fractions with GFP fluorescence on SDS-PAGE (Coomassie); details: remark: other sources report otherwise

Molecule	binding [1]	binding [2]	binding [3]	binding [4]
Vps11(737-1029) (from UniProt P12868 737-1029) (domain or fragment)	binds	binds	binds	
B1				binds

Source: publication PMC3846719
